Data taken from publication PMC4336329 (PLoS ONE, 2015).
The whole screen tested about 310,000 compounds, of which about 14,000 (4.5%) showed an effect of 50% or more. Effects have a minus sign here. Some of the results follow.

biological target: human ether-à-go-go-related gene (hERG) potassium channel (human, UniProt Q12809); test: primary screen, population patch clamp on CHO cells stably expressing hERG
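Further: peak tail current of the secondary pulse compared with the same well before compound.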

human ether-à-go-go-related gene (hERG) potassium channel, sequence (Q12809 whole entry, looked up): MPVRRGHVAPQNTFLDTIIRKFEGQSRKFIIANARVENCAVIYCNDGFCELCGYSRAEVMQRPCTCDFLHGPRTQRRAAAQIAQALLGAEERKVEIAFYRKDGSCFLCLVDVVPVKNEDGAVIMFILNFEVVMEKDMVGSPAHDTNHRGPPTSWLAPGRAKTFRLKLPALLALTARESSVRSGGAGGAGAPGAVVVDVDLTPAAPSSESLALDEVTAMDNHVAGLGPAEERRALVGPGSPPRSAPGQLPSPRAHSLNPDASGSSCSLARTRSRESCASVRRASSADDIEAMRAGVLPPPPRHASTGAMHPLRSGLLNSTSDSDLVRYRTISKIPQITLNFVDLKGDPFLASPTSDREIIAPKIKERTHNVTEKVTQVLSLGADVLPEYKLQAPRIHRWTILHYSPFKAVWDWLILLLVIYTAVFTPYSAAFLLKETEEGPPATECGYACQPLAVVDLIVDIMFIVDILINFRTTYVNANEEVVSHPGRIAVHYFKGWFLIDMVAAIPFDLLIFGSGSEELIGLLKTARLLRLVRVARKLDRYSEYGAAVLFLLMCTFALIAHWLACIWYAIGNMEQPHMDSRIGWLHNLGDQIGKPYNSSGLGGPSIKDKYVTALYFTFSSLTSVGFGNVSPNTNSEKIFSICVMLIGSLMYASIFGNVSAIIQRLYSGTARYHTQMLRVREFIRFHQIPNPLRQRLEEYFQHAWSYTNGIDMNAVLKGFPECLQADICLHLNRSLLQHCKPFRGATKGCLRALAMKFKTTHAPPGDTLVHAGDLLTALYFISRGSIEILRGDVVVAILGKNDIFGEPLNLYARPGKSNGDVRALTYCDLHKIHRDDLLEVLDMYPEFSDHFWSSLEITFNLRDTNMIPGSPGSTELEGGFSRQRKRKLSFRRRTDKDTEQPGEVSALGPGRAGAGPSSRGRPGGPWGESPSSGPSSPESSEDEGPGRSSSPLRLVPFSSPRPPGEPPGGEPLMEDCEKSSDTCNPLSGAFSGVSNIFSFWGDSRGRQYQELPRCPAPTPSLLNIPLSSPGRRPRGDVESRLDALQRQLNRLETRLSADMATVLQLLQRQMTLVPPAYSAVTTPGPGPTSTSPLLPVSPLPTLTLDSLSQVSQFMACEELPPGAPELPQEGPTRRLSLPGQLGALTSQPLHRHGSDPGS

`COc1cccc(NC(=O)c2cccnc2)c1` was tested. Which “hERG current change (%, negative = inhibition) at 10uM” value did it give?
The value was 11.2%.

How did the “hERG current change (%, negative = inhibition) at 10uM” value turn out when `Cn1nnc(NC(=O)COc2ccc(C3CCCCC3)cc2)n1` was run?
Its value is -36.4%.

With `CCCNC(=O)c1onc(CSc2ccc(F)cc2)c1C(=O)NCCOC` as the compound, how does the “hERG current change (%, negative = inhibition) at 10uM” value read?
The value was -14.6%.

For `Cc1nn(Cc2ccccc2Cl)c(C)c1C(=O)OCC(=O)N1CC(C)OC(C)C1` (stereo not drawn), which “hERG current change (%, negative = inhibition) at 10uM” value is on record?
The value was 1.43%.

`O=C(CNC1CCCCC1)Nc1ccc(S(=O)(=O)N2CCCCC2)cc1` was tested. Which “hERG current change (%, negative = inhibition) at 10uM” value did it give?
Its value is 2.13%.

How did the “hERG current change (%, negative = inhibition) at 10uM” value turn out when `CCN(CC)C(=O)CNC(=O)Cc1ccc(Cl)cc1` was run?
Its value is -9.62%.

For `CC(C)n1c(=O)c2c(O)cc(=O)oc2c2ccccc21`, which “hERG current change (%, negative = inhibition) at 10uM” value is on record?
Its value is -20.7%.

For `Cc1cccc(S(=O)(=O)N(CC(=O)Nc2ccccc2C)Cc2ccco2)c1`, which “hERG current change (%, negative = inhibition) at 10uM” value is on record?
Its value is -40.7%.

Which “hERG current change (%, negative = inhibition) at 10uM” value does the source give for `CCCc1cc(=O)oc2c3c(cc(OCC(=O)N[C@@H](CSC)C(=O)O)c12)OC(C)(C)CC3` here?
The value was 17.3%.

With `Cc1ccc(CSc2nnc(C)c(=O)n2N)cc1` as the compound, how does the “hERG current change (%, negative = inhibition) at 10uM” value read?
Its value is 5.84%.

With `COc1ccc(CCNC(=O)c2coc3ccccc3c2=O)cc1OC` as the compound, how does the “hERG current change (%, negative = inhibition) at 10uM” value read?
Its value is -4.09%.

`Cc1ccc(S(=O)(=O)N(C)CC(=O)OCC(=O)NCCN2C(=O)CSC2=O)cc1` was tested. Which “hERG current change (%, negative = inhibition) at 10uM” value did it give?
Its value is -9.67%.

With `CCOc1ccccc1NC(=O)N1CCCC1C(=O)Nc1nnc(CC)s1` (stereo not drawn) as the compound, how does the “hERG current change (%, negative = inhibition) at 10uM” value read?
The value was -9.09%.

For `CCOC(=O)CC(Nc1nc(N2CCOCC2)nc(N2CCOCC2)n1)c1ccccc1Cl` (stereo not drawn), which “hERG current change (%, negative = inhibition) at 10uM” value is on record?
Its value is -5.21%.

`Cc1nn(-c2ccccc2)c(C)c1-c1cc(C(=O)N/N=C/c2cccnc2)[nH]n1` was tested. Which “hERG current change (%, negative = inhibition) at 10uM” value did it give?
Its value is -18.7%.

How did the “hERG current change (%, negative = inhibition) at 10uM” value turn out when `CSc1ncc(Cl)c(C(=O)Nc2ccc(S(=O)(=O)N3CCOCC3)cc2)n1` was run?
The value was -1.86%.

How did the “hERG current change (%, negative = inhibition) at 10uM” value turn out when `CC(C)C(=O)Nc1cccc2nsnc12` was run?
The value was 12.6%.

With `Cc1cccc(NC(=O)C(C)Sc2nnc(-c3cccnc3)o2)c1` (stereo not drawn) as the compound, how does the “hERG current change (%, negative = inhibition) at 10uM” value read?
Its value is 3.15%.

For `O=C(N/C(=C\c1ccccc1)C(=O)N1CCN(CCO)CC1)c1ccccc1`, which “hERG current change (%, negative = inhibition) at 10uM” value is on record?
Its value is -42.9%.

How did the “hERG current change (%, negative = inhibition) at 10uM” value turn out when `Cc1ccc(C)c(S(=O)(=O)ON2C(=O)c3ccccc3C2=O)c1` was run?
Its value is 14%.

How did the “hERG current change (%, negative = inhibition) at 10uM” value turn out when `Cc1sc2nc(-c3ccco3)oc(=O)c2c1C` was run?
Its value is 6.66%.

Which “hERG current change (%, negative = inhibition) at 10uM” value does the source give for `O=C(CS(=O)c1ccc(C(F)(F)F)cc1[N+](=O)[O-])Oc1ccccc1` (stereo not drawn) here?
The value was 17.2%.

With `O=C(CN1C(=O)c2ccccc2C1=O)OCC(=O)c1ccccc1` as the compound, how does the “hERG current change (%, negative = inhibition) at 10uM” value read?
The value was -11%.

With `CC1(C)Cc2c(sc3[nH]c(=O)n(CC(=O)NCC4CCCO4)c(=O)c23)CO1` (stereo not drawn) as the compound, how does the “hERG current change (%, negative = inhibition) at 10uM” value read?
The value was 20.5%.

How did the “hERG current change (%, negative = inhibition) at 10uM” value turn out when `CC(C)CC(O)(c1ccccc1)C(CN1CCOCC1)c1ccccc1.Cl` (stereo not drawn) was run?
The value was 14.7%.

`COc1cccc(NC(=O)COC(=O)c2c(F)cccc2Cl)c1` was tested. Which “hERG current change (%, negative = inhibition) at 10uM” value did it give?
The value was 1.71%.

For `CCCCCN1CC(O)=C(c2nc3ccccc3[nH]2)C1=N`, which “hERG current change (%, negative = inhibition) at 10uM” value is on record?
Its value is 11.8%.

How did the “hERG current change (%, negative = inhibition) at 10uM” value turn out when `C=CCn1c(N)cc(=O)nc1SCC(=O)Nc1ccc(C(=O)OC)cc1` was run?
Its value is -21%.

How did the “hERG current change (%, negative = inhibition) at 10uM” value turn out when `CC(=O)N1CCN(C(=O)c2ccc(S(=O)(=O)Nc3cccc(C(F)(F)F)c3)cc2)CC1` was run?
The value was 4.85%.

With `COC(=O)c1cccc(NC(=O)Cn2nnc3ccccc32)c1` as the compound, how does the “hERG current change (%, negative = inhibition) at 10uM” value read?
The value was 0.234%.

With `CCOC(=O)Cc1csc(N/N=C/c2cccc([N+](=O)[O-])c2)n1` as the compound, how does the “hERG current change (%, negative = inhibition) at 10uM” value read?
Its value is 6.24%.

With `Cc1ccc2c(c1)N(CC(=O)N1CCCCCC1)C(=O)c1cccnc1O2` as the compound, how does the “hERG current change (%, negative = inhibition) at 10uM” value read?
The value was -2.14%.

With `O=C(c1cnn(-c2ccccc2)c1-n1cccc1)N1CCN(C2CCCCC2)CC1` as the compound, how does the “hERG current change (%, negative = inhibition) at 10uM” value read?
The value was -67.2%.

For `COCCNC(=O)C1=NOC(Cn2cc(C#N)c(=O)n(C)c2=O)C1` (stereo not drawn), which “hERG current change (%, negative = inhibition) at 10uM” value is on record?
Its value is 34.2%.

`O=C(O)c1ccc(S(=O)(=O)N2CCN(c3ccccn3)CC2)cc1` was tested. Which “hERG current change (%, negative = inhibition) at 10uM” value did it give?
The value was 19.3%.

For `O=C(N/N=C/c1ccncc1)c1nn(Cc2ccccc2)c(=O)c2ccccc12`, which “hERG current change (%, negative = inhibition) at 10uM” value is on record?
Its value is -0.0913%.

Which “hERG current change (%, negative = inhibition) at 10uM” value does the source give for `N#CCCN(C(=O)CSc1ccc2c(c1)OCCO2)c1ccccc1` here?
The value was -2.35%.

How did the “hERG current change (%, negative = inhibition) at 10uM” value turn out when `Cc1ccc(S(=O)(=O)c2nc(S(=O)(=O)c3ccccc3)sc2N2CCN(CCO)CC2)cc1` was run?
The value was -40.6%.

`C=CCn1c(Cc2c[nH]c3ccccc23)n[nH]c1=S` was tested. Which “hERG current change (%, negative = inhibition) at 10uM” value did it give?
The value was 10.8%.

`O=C(NCc1ccccc1)C1=C[C@@H](c2csc3ccccc23)C[C@@H](OCCCCO)O1` was tested. Which “hERG current change (%, negative = inhibition) at 10uM” value did it give?
Its value is -69%.

For `O=C(CCn1c(=S)oc2ccccc21)Nc1cccc(F)c1`, which “hERG current change (%, negative = inhibition) at 10uM” value is on record?
The value was 8.26%.

How did the “hERG current change (%, negative = inhibition) at 10uM” value turn out when `Cc1c(CN2CCC(CO)(Cc3cccc(C(F)(F)F)c3)CC2)c2ccccc2n1C` was run?
The value was -47.2%.

How did the “hERG current change (%, negative = inhibition) at 10uM” value turn out when `COc1ccc2cc(C3=CC(=O)C[C@H](c4ccc5c(c4)OCO5)C3)ccc2c1` was run?
The value was 17.3%.

For `COc1cnc(NS(=O)(=O)c2ccc(N)cc2)nc1`, which “hERG current change (%, negative = inhibition) at 10uM” value is on record?
Its value is 16.1%.

With `COc1ccc(-c2nc3ccc(C)cn3c2NCc2ccc3c(c2)OCO3)cc1` as the compound, how does the “hERG current change (%, negative = inhibition) at 10uM” value read?
The value was -34.1%.

With `CCCCCN=CC1=C(O)CC(c2ccccc2)CC1=O` (stereo not drawn) as the compound, how does the “hERG current change (%, negative = inhibition) at 10uM” value read?
The value was -6.98%.

How did the “hERG current change (%, negative = inhibition) at 10uM” value turn out when `Cc1nn(Cc2ccccc2Cl)c(Cl)c1C(=O)OCC(=O)NC(=O)NC1CCCCC1` was run?
The value was 10.4%.

`CCN(CC)C(=O)CSC1=N/C(=C/c2ccco2)C(=O)N1c1ccc(OC)c(Cl)c1` was tested. Which “hERG current change (%, negative = inhibition) at 10uM” value did it give?
The value was 7.43%.

For `Cc1ccc(-c2n[nH]c(=O)c3ccccc23)cc1S(=O)(=O)NCCN1CCOCC1`, which “hERG current change (%, negative = inhibition) at 10uM” value is on record?
Its value is -9.11%.

With `Cc1ccc(C(=O)c2c(NC(=O)c3cccnc3)sc3c2CCCC3)cc1` as the compound, how does the “hERG current change (%, negative = inhibition) at 10uM” value read?
The value was -11.3%.

Which “hERG current change (%, negative = inhibition) at 10uM” value does the source give for `Cc1c(OCC(=O)NCCN2CCOCC2)ccc2c3c(c(=O)oc12)CCC3` here?
Its value is -14.2%.

Which “hERG current change (%, negative = inhibition) at 10uM” value does the source give for `CCOC(=O)c1[nH]c(C)c(C(=O)NCC2CCCO2)c1C` (stereo not drawn) here?
Its value is 6.52%.

How did the “hERG current change (%, negative = inhibition) at 10uM” value turn out when `O=C(CSc1nnc(-c2ccncc2)o1)Nc1nncs1` was run?
The value was 15.5%.

For `Cc1cccc(-n2nnnc2SCc2csc(-c3ccccc3)n2)c1`, which “hERG current change (%, negative = inhibition) at 10uM” value is on record?
The value was -18.8%.

Which “hERG current change (%, negative = inhibition) at 10uM” value does the source give for `CCCOC(=O)CCCN1C(=O)/C(=C2\SC(=S)N(CCCC(=O)OCCC)C2=O)SC1=S` here?
Its value is 9.91%.

How did the “hERG current change (%, negative = inhibition) at 10uM” value turn out when `CCC(CC)NC1CCCCC1OC` (stereo not drawn) was run?
The value was 17.4%.

For `COc1cc2c(cc1NC(=O)CSc1nc3cc(Cl)ccc3s1)oc1ccccc12`, which “hERG current change (%, negative = inhibition) at 10uM” value is on record?
The value was 8.33%.
